Each structure is given as a SMILES string.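 Cultured in 96-well plates, cells were exposed to test compound for 48 hours across five concentrations. The concentration for 50% growth inhibition is given as GI50.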 A number of entries come with more than one value. They are shown here; other results are not. An entry can have further records. For some assays here: Records of one sample usually come from different ranges of test concentrations, which the source does not state; some values may only mark the edge of a range. For some assays here: Values given together are repeats (runs, samples, wells, individuals or studies). Brackets tell where a record comes from. Letters hold for one entry only.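 TGI denotes the concentration required for complete inhibition of growth.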 *1 amine or outer side, *2 acyl side, *3 side chain or, on linkers, in order; H or OH if unused. Where a SMILES comes first, the peptide text is derived from it. Bridges are numbered along the chain shown (N, C = ends). Roman numbers before positions name the chains, in order. [ ]: non-standard residue; d: D form. Actinocin(9to1) = Cc1c2oc3c(C)ccc(C(=O)[*:1])c3nc-2c(C(=O)[*:2])c(N)c1=O; NMeF = CN[CH](Cc1ccccc1)C(=O)O; Sar = CNCC(=O)O

Common to all, as to assay: NCI-60 cell line screen, 48 h
In assay [1] the test system is K-562 leukemia.
Assay [2] has as its system RPMI-8226 leukemia.
For assay [3], the system named is NCI/ADR-RES ovarian.
Assay [4] concerns NCI-H23 lung.
The subject of assay [5] is A549 NSCLC.
The subject of assay [6] is IGROV1 ovarian.
The test system of assay [7] is HOP-62 NSCLC.
In assay [8] the test system is MOLT-4 leukemia.
Assay [9] has as its system NCI-H226 lung.
For assay [10], the system named is U251 CNS.
The test system of assay [11] is SW-620 colon.
Assay [12] relates to SK-MEL-2 melanoma.
Assay [13] concerns CCRF-CEM leukemia.
In assay [14] the test system is LOX IMVI melanoma.
Assay [15] relates to SNB-19 CNS.
Assay [16] has as its system HCC-2998 colon.
The test system of assay [17] is NCI-H522 lung.
Assay [18] concerns MALME-3M melanoma.
The test system of assay [19] is HT29 colon.
Assay [20] deals with SN12C renal.
Assay [21] deals with MDA-MB-231 breast.
In assay [22] the test system is UACC-257 melanoma.
Assay [23] deals with UO-31 renal.
For assay [24], the system named is SK-OV-3 ovarian.
The subject of assay [25] is KM12 colon.
In assay [26] the test system is RXF 393 renal.
Assay [27] relates to NCI-H460 lung.

As for `CN(C)/N=N/c1nc[nH]c1C(N)=O`, the TGI is 80.4 µM and > 1 mM in [1]; 90.4 µM and > 1 mM in [2]; 99.7 µM and > 1 mM in assay [3]; 99.4 µM and > 1 mM in assay [4]; 99.7 µM and > 1 mM in [5]; 78.3 µM and > 1 mM in assay [6]. For the same compound, the TGI is 84.7 µM and > 861 µM in assay [7]; 79.8 µM and > 911 µM in assay [8]; 99.7 µM and > 1 mM in [9].
On to `CNCCN=c1ccc2c3c1c(O)c1c(O)ccc(=O)c1c3[nH]n2CCNCCO`, for which the GI50 was 22 nM [mean of 10 tests] and 0.989 nM [mean of 4 tests] in assay [10]; 693 nM [mean of 2 tests] and 0.119 nM [mean of 3 tests] and 2.05 µM [mean of 6 tests] in assay [12]; 71.7 nM [mean of 2 tests] and 0.999 nM [mean of 5 tests] and 32.5 nM [mean of 8 tests] in [13]; 577 nM [mean of 4 tests] and 0.672 nM [mean of 5 tests] in [16]; 62.6 nM [mean of 3 tests] and 0.482 nM [mean of 5 tests] in assay [7]; 122 nM [mean of 3 tests] and 0.921 nM, 18.4 nM [mean of 5 tests] in assay [8]. Further, the TGI in assay [11] was 4.62 µM, 5.93 µM, 5 mM; in assay [12], 1.71 µM [mean of 2 tests] and 0.163 nM [mean of 3 tests] and 4.16 µM [mean of 6 tests]; in assay [13], 14.3 µM [mean of 2 tests] and 937 nM [mean of 8 tests]; in assay [14] it was 67.7 µM [mean of 4 tests] and 3.36 µM [mean of 5 tests]; in assay [15], 23.5 µM [mean of 3 tests] and 845 nM [mean of 9 tests]; in [17], 29.8 µM [mean of 2 tests] and 1.53 µM [mean of 8 tests]. In addition, the TGI is 1.77 µM [1 test] and 0.346 nM [mean of 4 tests] and 3.27 µM [mean of 8 tests] in assay [18]; 0.874 nM, 117 nM, 113 nM in assay [7]; 4.07 µM [mean of 3 tests] and 77.3 nM [mean of 5 tests] in [8].
In the case of `Cc1c2oc3c(C)ccc(C(=O)NC4C(=O)NC(C(C)C)C(=O)N5CCCC5C(=O)N(C)CC(=O)N(C)C(Cc5ccccc5)C(=O)OC4C)c3nc-2c(C(=O)NC2C(=O)NC(C(C)C)C(=O)N3CCCC3C(=O)N(C)CC(=O)N(C)C(Cc3ccccc3)C(=O)OC2C)c(N)c1=O` (stereo not drawn) (I: TVP[Sar][NMeF] / II: TVP[Sar][NMeF]; ester I:1-I:C, II:1-II:C; linker I:N-II:N via Actinocin(9to1); configuration not given here), the TGI in [19] is 2.51 µM [sample A, 1 test] and 29.6 nM [sample B, mean of 2 tests]; in [20], < 10 nM [sample A, 1 test] and 126 nM [sample B, mean of 2 tests]; in [21], < 10 nM [sample A, 1 test] and > 435 nM [sample B, mean of 2 tests]; in [22] it was < 10 nM [sample A] and 127 nM [sample B]; in assay [23] it was < 11.8 nM [sample A, mean of 2 tests] and 446 nM [sample B, mean of 2 tests]; in assay [24] it was < 18.7 nM [sample A] and > 267 nM [sample B]. For the same compound, the TGI in [25] is < 10 nM [sample A] and 307 nM [sample B]; in [6], < 10 nM [sample A, mean of 2 tests] and > 1 µM [sample B, 1 test]; in assay [9], < 10 nM [sample A] and > 203 nM [sample B]. Moreover, the GI50 in assay [3] is < 20.4 nM [sample A, mean of 2 tests] and 355 nM [sample B, mean of 2 tests].
Turning to `C/C=C(/C)C(=O)O[C@H]1[C@H](O)CC(c2ccc3c(c2O)C(O)=C2C(=O)C4(OC)C(O)=C(C(N)=O)C(=O)[C@H](CC(=O)c5ccccc5O)C4CC2[C@@]3(C)OC)O[C@@H]1C` (stereo partly drawn), the TGI in [26] was 1.56 µM and 134 nM; in assay [27] it was 1.03 µM and 88.1 nM; in [22], 76.8 nM and 1.39 µM; in assay [7], 1.01 µM and 93.6 nM.

(Values after PubChem BioAssay (NCI).)
